Data published in PubChem BioAssay (NCATS).
Inconclusive means that the source gave no clear call. Such entries were picked first, then a sample of the others. Potencies of inconclusive entries are doubtful fits and often do not repeat. Active and inactive are the calls of the source. The call rests on the fitted dose curve; in most records, active means well fitted inhibition curve with a large enough effect; inconclusive means small, poorly fitted or top-dose-only effect; inactive means flat fitted curve, though single readings scatter.

molecular target: Flap endonuclease 1 (Homo sapiens) (UniProt P39748); assay: qHTS Assay for the Inhibitors of FEN1: Confirmatory Assay for Cherry-picked Compounds (AID 720498); details: FEN1 flap cleavage, TAMRA/BHQ2 fluorogenic DNA substrate; further: nearly all actives have a fitted effect of over 60% in size
How it was run: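 Human FEN1 (10 nM reagent) was preincubated with compounds for 15 min at room temperature, then 50 nM final double-flap DNA substrate (5'-TAMRA flap, BHQ-2 quencher strand) was added. Fluorescence (ex 525/em 598 nm) was read at 0 and 15 min.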
Potency means the concentration at half of the fitted maximal effect; tags describe the fitted curve by direction and shape.

UniProt P39748, sequence (P39748 whole entry, looked up): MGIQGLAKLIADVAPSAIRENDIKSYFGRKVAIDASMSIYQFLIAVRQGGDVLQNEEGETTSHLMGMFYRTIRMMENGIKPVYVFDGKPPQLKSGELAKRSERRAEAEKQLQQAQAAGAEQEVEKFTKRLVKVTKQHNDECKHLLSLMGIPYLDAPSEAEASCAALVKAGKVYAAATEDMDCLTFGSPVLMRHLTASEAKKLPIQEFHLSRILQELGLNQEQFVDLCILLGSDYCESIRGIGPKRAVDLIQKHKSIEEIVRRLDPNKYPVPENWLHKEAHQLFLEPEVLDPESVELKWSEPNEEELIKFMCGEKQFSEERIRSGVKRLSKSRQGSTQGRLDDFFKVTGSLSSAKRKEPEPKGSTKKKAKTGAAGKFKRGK

**Q.** NS(=O)(=O)c1ccc(N=Nc2c(O)c(C(=O)O)cc3ccccc23)cc1 was tested. Which Potency did it give?
**A.** The Potency was inconclusive: 42.6 µM [inhibitor, partial curve].

**Q.** How did the Potency turn out when O=C(O)CCCNc1cc(N2CCN(C3CCCCC3)CC2)c2noc3c2c1C(=O)c1ccccc1-3 was run?
**A.** Its Potency is inconclusive: 33.8 µM [inhibitor, partial curve].

**Q.** CC(=O)N(\C=C/C=C/C=C1\Sc2ccccc2C1=O)c1ccccc1 was tested. Which Potency did it give?
**A.** The Potency was inconclusive: 67.5 µM [inhibitor, partial curve].

**Q.** CC(=O)Nc1ccc(-n2nnnc2SCC(=O)Nc2cccc(NC(=O)c3ccco3)c2)cc1 was tested. Which Potency did it give?
**A.** The Potency was inconclusive: 67.5 µM [inhibitor, partial curve].

**Q.** How did the Potency turn out when CCOC(=O)C1=C(COC(=O)c2ccc([N+](=O)[O-])s2)NC(=O)NC1C (stereo not given) was run?
**A.** Its Potency is active: 4.26 µM.
